Screen size: about 310,000 compounds; about 18,000 (5.8%) were called active. Inconclusive results, whose numbers are uncertain, are shown with a selection of clear calls. Calls follow the shape of the dose curve; as a rule, active = well fitted inhibition curve with a large enough effect; inconclusive = small, poorly fitted or top-dose-only effect, or another doubt; inactive = no such curve, though single readings can be large or run the other way. Potencies of inconclusive entries are left out as doubtful fits.
Assay: Primary qHTS for delayed death inhibitors of the malarial parasite plastid, 48 hour incubation
Details: P. falciparum luciferase growth in erythrocytes; series mostly up to 28.7 µM
Procedure, shortened: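 Luciferase-expressing P. falciparum in infected erythrocytes (2% hematocrit, 0.1% parasitemia final) in RPMI 1640/0.5% Albumax were exposed to compound for 48 hours at 37 C, 5% CO2; growth read as luminescence.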
Potency is read from the fitted curve at half-maximal effect; tags tell the direction and shape of the fitted curve.

| Structure (SMILES) | Potency |
| --- | --- |
| COc1cccc(-c2sc3ccc(OC)cc3c2-c2cc(F)cc(OC)c2)c1 | inconclusive [inhibitor, single point] |
| CCCn1c(=O)c2sccc2n2c(CCCC(=O)NCc3cccnc3)nnc12 | inactive |
| O=c1c2c3c(sc2nc2n1CCC2)CCCC3 | inactive |
| CCN(CC)CCCCN1c2ccccc2Sc2ccccc21 | inconclusive [inhibitor, single point] |
| COc1ccc(CCNC(=O)CCS(=O)(=O)c2ccc3c(c2)NC(=O)CO3)cc1OC | inconclusive [inhibitor, single point] |
| Cc1nc2ccccn2c1-c1ccnc(SCc2ccc(Cl)cc2)n1 | active: 5.86 µM |
| CCOC(=O)c1cccc(-c2c(-c3ccccc3)ncc3cc(OC)c(OC)cc23)c1 | inconclusive [inhibitor, single point] |
| CC(=O)c1c(O)c(C)c(O)c2c1OC1=CC(=O)C(C(C)=O)C(=O)[C@@]12C (some centres not stated) | inactive |
| Cc1cc(NC(=O)CSc2nnc3ccccn23)no1 | inactive |
| COc1ccc(NC(=S)N2CCC(C(=O)c3ccc(C)cc3)CC2)c(OC)c1 | inactive |
| CC1Cc2nc(SCC(=O)NCC3CCCO3)n(-c3ccc(F)cc3)c(=O)c2S1 (configuration not stated) | active: 8.28 µM |
| CC1(C)Cc2c(ccc3ccccc23)C(=O)N1 | inconclusive [inhibitor, single point] |
| O=C(Nc1ccc(F)c(F)c1)C1CCCN(S(=O)(=O)c2cccc3nonc23)C1 (configuration not stated) | inconclusive [inhibitor, partial curve, poor fit] |
| CCN(CC)c1ccc(NC(=O)c2cccc(OC)c2)c(C)c1 | inactive |
| Cc1c(Cl)c([N+](=O)[O-])nn1CCCC(=O)N(Cc1ccccc1)Cc1ccccc1 | inconclusive [inhibitor, single point] |
| CN(CC(=O)Nc1ccccc1C(=O)NC1CC1)Cc1ccc(Cl)s1 | inactive |
| CN1C(=O)CSc2ccc(NC(=O)N3CCN(c4ccccc4)CC3)cc21 | inconclusive [inhibitor, partial curve, poor fit] |
| COc1cc(CN2CCNC(=O)C2CC(=O)NCCc2ncccc2C)cc(OC)c1 (configuration not stated) | inconclusive [inhibitor, full curve, poor fit] |
| COc1ccccc1C(=O)NCCC(=O)NCCCSc1ccccc1 | inconclusive [inhibitor, single point] |
| CCOC(=O)c1ccccc1N/C=C/C(=O)c1cccs1 | inactive |
| OC(CNCc1ccc(Cl)cc1)(c1ccccc1)c1ccc(F)cc1 (configuration not stated) | active: 13.1 µM |
| COc1ccccc1NC(=O)N(Cc1ccco1)Cc1cc2c(C)ccc(C)c2[nH]c1=O | inconclusive [inhibitor, single point] |
| Cc1ccc(C)c(N2CCN(C(=O)CCNC(=O)Cn3ccc4ccccc4c3=O)CC2)c1 | inconclusive [inhibitor, single point] |
| COc1cc2c(cc1OC)C(c1ccccc1)N(C(=O)CCl)CC2 (configuration not stated) | inconclusive [inhibitor, single point] |

| Structure (SMILES) | Potency |
| --- | --- |
| COc1ccc(CC(=O)N2CCCc3ccccc32)cc1 | inactive |
| O=C(CSc1ccccc1)NCc1ccco1 | inactive |
| COCCNC(=O)/C(C#N)=C/c1ccc(OCc2ccc(F)cc2)cc1 | inconclusive [inhibitor, partial curve, poor fit] |
| Cc1cccc(C(=O)NNS(=O)(=O)c2ccc(F)cc2)c1O | inactive |
| CCOc1ccc(OCCOc2ncnc3ccccc23)cc1 | inactive |
| CC(=O)N1Cc2ccccc2CC1C(=O)N1CCN(c2ccccc2)CC1 (configuration not stated) | inactive |
| CCN1C(=O)[C@H]2[C@@H](c3ccc(-c4ccc(OC)cc4)cc3)N3CCC[C@@]3(C(=O)OC)[C@H]2C1=O | active: 13.1 µM |
| COc1ccc(CNCC(O)(c2ccccc2)c2ccc(Cl)cc2)cc1 (configuration not stated) | active: 2.33 µM |
| CCOC(=O)C1=C(C)N(CCCC(=O)O)C(=O)NC1c1ccccc1OS(=O)(=O)c1ccc(C)cc1 (configuration not stated) | inactive |
| COc1ccc(CN(C)C(=O)c2cccc(NS(=O)(=O)c3ccccc3)c2)cc1F | inconclusive [inhibitor, full curve, poor fit] |
| Cc1[nH]c2ccccc2c1N=Nc1cc(C(=O)O)cc(C(=O)O)c1 | inactive |
| O=C(Oc1ccc(-c2nnco2)cc1)c1ccco1 | inactive |
| CCCc1cc(N2CCCC(C(=O)NCc3ccc4c(c3)OCO4)C2)n2ncnc2n1 (configuration not stated) | inconclusive [inhibitor, partial curve, poor fit] |
| CC(C)Oc1ccc(S(=O)(=O)N(C(C)C)C(C)C)cn1 | inconclusive [inhibitor, single point] |
| COc1cccc(CNC(=O)C(C)n2ccc3cc(S(=O)(=O)N4CCCC4)ccc32)c1 (configuration not stated) | inconclusive [inhibitor, partial curve] |
| CCCCn1c(=N)c(S(=O)(=O)c2ccc(Br)cc2)cc2c(=O)n3cccc(C)c3nc21 | inconclusive [inhibitor, full curve] |
| COc1cccc(/C=C(/C(=O)OCC(=O)NCC2CCCO2)c2ccccc2)c1 (configuration not stated) | inconclusive [inhibitor, full curve, poor fit] |
| O=C(c1ccc(N2CCCCC2)c([N+](=O)[O-])c1)N1CCN(S(=O)(=O)c2ccccc2)CC1 | active: 11.7 µM |
| COc1ccc(Cc2nc3ccc(C(=O)NC(C)Cc4ncccc4C)cc3o2)cc1OC (configuration not stated) | inconclusive [inhibitor, partial curve] |
| COc1cc(C(Nc2ccc(S(=O)(=O)NCC3CCCO3)cc2)C(=O)NC(C)(C)C)cc(OC)c1OC (configuration not stated) | active: 2.08 µM |
| Clc1ccc2nc(-c3ccccc3)nc(C(Cl)Cl)c2c1 | active: 10.4 µM |
| CCOc1ccccc1N(CC(=O)Nc1ccc(S(=O)(=O)N2CCOCC2)cc1)S(C)(=O)=O | inconclusive [inhibitor, partial curve, poor fit] |
| CCC1=Nc2cc(C(=O)N3CCC4(CC3)OCCO4)ccc2Sc2ccc(Br)cc21 | inconclusive [inhibitor, partial curve] |

Source: PubChem BioAssay AID504832 (National Center for Advancing Translational Sciences (NCATS), 2011)
